# According to article PMC12040169 (PLOS Biology, 2025):
# Some of the results follow.
# Tested on: T1, C. trachomatis L2/434/Bu expressing GFP (CTL2-GFP)
# T1 construct: L2/434/Bu GFP intracellular growth in HeLa cells
# Set-up: species or system HeLa; C. trachomatis total inclusion area by high-content imaging, normalised to DMSO
# Details: total inclusion area; 28.5 h, 10 µM; inhibitor
# Procedure, shortened: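 High-content imaging followed the bulk GFP/resorufin measurement: fixed, Hoechst-stained cells were scored for GFP inclusions and host nuclei per well. Total inclusion area and count served as growth proxies, nuclei number as the viability proxy. MIC calculation matched the bulk assay.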
row,SMILES,% of control remaining
1,CN1CCN(C(=O)C2CCCCC2C(=O)O)CC1 (centres unmarked) [CBK287092],110.462
2,NC(=O)C1CCN(Cc2nc(-c3cccc(C(F)(F)F)c3)no2)CC1 [CBK304276],78.0508
3,COc1ccc(C(=O)Nc2cccc3nsnc23)cc1OC [CBK260973],81.7204
4,Cc1c(OCc2ccc(C(=O)O)cc2)ccc2c(-c3ccccc3)cc(=O)oc12 [CBK296080],82.7495
5,O=C1c2ccccc2C(c2ccc(NC(=O)c3cccc4ccccc34)cc2)(c2ccc(NC(=O)c3cccc4ccccc34)cc2)c2ccccc21 [CBK261162],89.1126
6,O=C(Nc1nccs1)c1nccnc1-c1ccc(COc2ccccc2)cc1 [CBK050839],125.287
7,CC(NC(=O)N(CCC#N)C1CCCCC1)c1ccccc1 (centres unmarked) [CBK156382],101.083
8,NCC(=O)Nc1ccc(Cl)c(Cl)c1 [CBK046317],91.5967
9,COCC(=O)Nc1ccc2c(c1)NC(=O)C(C)(C)CO2 [CBK287658],94.1697
10,COc1ccc(-n2ccn(C(=O)CCC3CCCC3)c2=O)cc1 [CBK106595],105.61
11,O=C(O)c1cccc(-c2cc(N3CCN(Cc4cccnc4)CC3)n3nccc3n2)c1 [CBK037080],136.784
12,CC(NC(=O)C1C2C=CC(C2)C1C(=O)O)c1ccccc1 (centres unmarked) [CBK265384],100.711
13,OCc1ncccc1OCCOC1CCCCO1 (centres unmarked) [CBK045702],82.2985
14,CCN1CCN(C(=O)CN(CC)S(=O)(=O)c2ccc3ccccc3c2)CC1 [CBK267913],89.1002
15,N#Cc1ccc(-c2cc(NCCc3ccncc3)ncn2)cc1 [CBK037787],152.311
16,COc1cccc(NC(=O)N2CC[C@H]3CC(=O)N(c4ccccc4)CC[C@H]3C2)c1 [CBK288787],73.7635
17,COC(=O)N/N=C(/C)c1ccc(C)cc1 [CBK016149],68.9914
18,CN(C)CCNCCCSc1ccc(Cl)cc1 [CBK267794C],82.4764
19,CCCNCC(=O)N1CCN(C(=O)c2ccc(C)cc2)CC1 [CBK025546],57.7278
20,COc1ccc(Oc2coc3c(CN(C)C)c(O)ccc3c2=O)cc1 [CBK263653],113.395
21,CC(C)[C@@H](N)C(=O)N1CC[C@@H]2NC(=O)[C@@H](Cc3ccccc3)NC(=O)C3(C/C=C/C[C@H]2C1)CCOCC3 [CBK292201],85.5657
22,Cn1c(Cc2ccccc2)nnc1Sc1ccc(C(=O)O)cc1[N+](=O)[O-] [CBK265038],104.134
23,COc1ccc(CCC(=O)Nc2ncn(Cc3cccc(C)c3)n2)cc1 [CBK288227],109.744
24,O=C(NCCn1nc(-c2cccs2)ccc1=O)c1cccs1 [CBK283836],98.1654
25,Cc1cnc(CNC(=O)N2CCc3ccccc3C2)cn1 [CBK155166],133.163
26,CC(=O)N1CCCC(c2cc3cccnc3n2CCN2CCCC2)C1 (centres unmarked) [CBK284591],82.5314
27,Cc1c(F)cccc1CNCc1ccc(CNC(=O)OC(C)(C)C)cc1 [CBK056708],118.299

row,SMILES,% of control remaining
1,CC(CCc1ccccc1)NC(=O)CC1COc2ccccc2O1 (centres unmarked) [CBK266203],99.8388
2,CC(=O)C(C)n1c(CN2CCCC(C)C2)nc2c1c(=O)n(C)c(=O)n2C (centres unmarked) [CBK306061],37.9683
3,CC(C)CCNC(=O)CC(=O)Nc1ccc(C(=O)O)cc1 [CBK286721],62.0411
4,CN1Cc2ccccc2CC1C(=O)N1CCc2ncc(Cl)cc2C1 (centres unmarked) [CBK282568],110.606
5,CC(C)(C)C(=O)NCCn1c(=O)oc2ccccc21 [CBK282885],119.852
6,CCOC(=O)c1cn(CCSCC)cc(Oc2ccccc2)c1=O [CBK307244],55.759
7,CC(C)(C)NS(=O)(=O)c1ccc(NC(=O)c2cc(-c3ccccn3)nc3c(Cl)cccc23)cc1 [CBK267783],96.8731
8,CC(Oc1ccccc1)C(=O)Nc1nn(Cc2ccc(S(=O)(=O)N3CCCC3)cc2)c2ccccc12 (centres unmarked) [CBK061595],93.2472
9,COc1ccccc1Cc1cccc(C2CCCN2C(=O)CCc2ccc(F)cc2)n1 (centres unmarked) [CBK286238],89.0759
10,CCCn1nc(C)c(-c2cncn2CCc2c(C)nn(C)c2C)c1C [CBK281475],77.606
11,Cc1cccc(NC(=O)Cn2cc(C(=O)COc3ccccc3)c3ccccc32)c1 [CBK268654],101.835
12,CC(=O)Nc1ccc(S(=O)(=O)Nc2nnc(C(C)(C)C)s2)cc1 [CBK045499],57.247
13,Cc1ccc(C(=O)NC[C@H]2O[C@@H](CC(=O)N3CCOCC3)[C@H](O)[C@@H]2O)cc1 [CBK288925],78.385
14,COc1cc([N+](=O)[O-])ccc1NC(=O)NCc1ccc(C(=O)O)cc1 [CBK267092],117.553
15,O=C(O)c1ccc(N2C(=O)CC(N3CCN(C/C=C/c4ccccc4)CC3)C2=O)cc1 (centres unmarked) [CBK261402],98.119
16,Cc1c(C(=O)O)sc2nc3c(Cl)cc(C(=O)c4ccccc4O)cn3c(=O)c12 [CBK295619],68.7114
17,Cc1noc(C)c1S(=O)(=O)Nc1ccsc1C(=O)Nc1ccc(F)cc1 [CBK004604],79.7189
18,CC(=O)c1cc(C)c(C)cc1N [CBK016322],125.135
19,O=C(Nc1ccc(C(F)(F)F)cc1)C1CCCS1 (centres unmarked) [CBK006142],51.683
20,OCCN1CC2(CCN(CCc3c[nH]c4ccccc34)CC2)c2ccccc21 [CBK144607T],88.6725
21,O=C(NCc1cccs1)c1ccc(-c2ccoc2)nc1 [CBK156269],89.338
22,Cc1cc(C)c2c(CC(=O)N(C)CCN(C)C)c(C)[nH]c2c1 [CBK282732],116.755
23,Cn1c(SCC(=O)Nc2c(F)cc(F)cc2Br)nnc1-c1cccnc1 [CBK267583],104.451
24,Cc1ccc(-c2c(N3CCCC3)n[nH]c2C2CC2)cc1 [CBK288192],53.4516
25,Cc1cc(CN2CCN(S(=O)(=O)c3ccc(C(F)(F)F)cc3Cl)CC2)cc(C)c1O [CBK063074],83.9805
26,CCC(NC(=O)CCc1cccnc1)c1cn2cccnc2n1 (centres unmarked) [CBK307247],67.4317
27,CC(C)(CN1CCCC1)NC(=O)c1cc(Cl)c(Cl)cc1C(=O)O [CBK287141],111.862

row,SMILES,% of control remaining
1,Cc1cc(=O)c(C#N)c(C)[nH]1 [CBK023326],59.2248
2,O=C(O)c1cccc(NS(=O)(=O)c2ccc(Br)cc2F)c1 [CBK155691],80.6909
3,Fc1cc(Br)ccc1-c1cnn(-c2ccccc2)n1 [CBK112925],81.0659
4,O=C(COc1ccc([N+](=O)[O-])cc1)Nc1cccc2nsnc12 [CBK263808],52.2679
5,COCCn1nc(C(=O)N(C)Cc2nc3ccccc3s2)ccc1=O [CBK305338],107.932
6,Cc1nc(C)n(CC2CCCN(Cc3cn4c(C)cccc4n3)C2)n1 (centres unmarked) [CBK304007],83.7889
7,CC(=O)N1CCN(C(=O)C[C@@H]2C[C@@H](C(C)C)[C@H](CC#N)C=C2C)CC1 [CBK289214],64.8844
8,COc1ccc2cnc(C3CCCN(C(=O)C4CC4)C3)cc2c1C (centres unmarked) [CBK284716],104.353
9,Cc1cccc(-c2nc(C(N)=O)c3[nH]c(=O)n(-c4ccc(F)cc4)c3n2)c1 [CBK287632],83.0279
10,CC(Sc1nc2ccccc2c(=O)n1C)C(=O)N1CCOCC1 (centres unmarked) [CBK305031],39.6746
11,O=C(C1CC2C=CC1C21CC1)N1CCCC(c2nc3ccccc3[nH]2)C1 (centres unmarked) [CBK281513],97.9658
12,O=S(=O)(NCc1cccnc1)c1ccc(Cl)c2ccccc12 [CBK264008],87.81
13,O=S(=O)(c1cc(Cl)ccc1Cl)N1CCCN(Cc2ccccc2)CC1 [CBK044491],84.695
14,COc1ccc(-c2nnc(SCC(=O)NN)n2-c2ccccc2)cc1OC [CBK262264],88.4427
15,COc1cc(NC(=O)Cn2nc([N+](=O)[O-])c(Cl)c2C)c(OC)cc1Cl [CBK033535],82.8481
16,COc1ccc2c(c1)C(=O)NC1(CC2)CCN(Cc2ccccc2)C1 (centres unmarked) [CBK283343],118.728
17,O=C(Cn1ccc(=O)[nH]c1=O)NCc1cccnc1-n1cccn1 [CBK305705],46.5249
18,Cc1c(Br)c(C(F)(F)F)nn1CC(=O)N1CCCC1 [CBK071473],111.001
19,COc1ccc([C@@]23CC[C@@H](NC(=O)c4ccc(C(F)(F)F)cc4F)C[C@@H]2N(C)CC3)cc1OC [CBK073976T],42.4542
20,O=C(c1ccc2c(c1)OCO2)N1CCN(C/C=C/c2ccccc2)CC1 [CBK262639],111.615
21,CCc1noc(C)c1C(=O)NC(C)c1cc2ccccc2o1 (centres unmarked) [CBK247065],94.7939
22,COc1ccc(CNc2cc(-c3cccc(Cl)c3)nc3ccnn23)cc1 [CBK037037],99.7883
23,Cc1c(CN(C)CC2CCN(C)C2)cnn1Cc1ccccc1 (centres unmarked) [CBK282616],124.186
24,COc1cc(C2SCC(=O)Nc3c2c(-c2ccccc2)nn3-c2ccccc2)cc(OC)c1OC (centres unmarked) [CBK265025],114.004
25,CCCC/C=C/c1nccnc1NCc1ccco1 [CBK037116],98.0432
26,O=c1[nH]c(CNc2ccccc2)nc2ccccc12 [CBK288038],97.9179
